{"source": "PubChem BioAssay AID360", "about": "(National Center for Advancing Translational Sciences (NCATS), 2006)", "note": "Hit rate of the full screen: of about 48,000 compounds, about 550 (1.1%) were called active. Another 4% or so got no clear call; they are omitted. Cut-off read from the data, not from the text of the source: active = potency below about 15 µM; inconclusive = mostly about 16 µM to 33 µM; inactive = weaker than that. This is one part of the list. Potency is the fitted concentration of half-maximal effect."}
{"target": "Lysosomal acid glucosylceramidase (Homo sapiens) (UniProt P04062)", "sequence (P04062 whole entry, looked up)": "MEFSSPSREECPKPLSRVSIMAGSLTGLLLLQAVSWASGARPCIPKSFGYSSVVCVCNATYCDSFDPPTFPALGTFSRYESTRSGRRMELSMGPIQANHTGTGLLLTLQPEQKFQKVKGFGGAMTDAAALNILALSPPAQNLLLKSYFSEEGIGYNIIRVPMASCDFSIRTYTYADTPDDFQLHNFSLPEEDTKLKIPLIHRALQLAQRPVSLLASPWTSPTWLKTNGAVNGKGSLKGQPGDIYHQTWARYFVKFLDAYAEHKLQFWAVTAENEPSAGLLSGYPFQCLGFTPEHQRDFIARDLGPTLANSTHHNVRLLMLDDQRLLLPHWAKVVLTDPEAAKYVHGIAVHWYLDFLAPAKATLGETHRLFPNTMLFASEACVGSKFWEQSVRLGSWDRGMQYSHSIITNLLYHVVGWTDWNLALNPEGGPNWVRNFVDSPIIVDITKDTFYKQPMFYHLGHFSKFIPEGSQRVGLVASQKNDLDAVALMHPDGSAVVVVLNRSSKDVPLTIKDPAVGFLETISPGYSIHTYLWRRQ", "assay": "Glucocerebrosidase;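 note: the screen sought inhibitors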", "conditions": "purified enzyme, resorufin glucoside fluorescence (screen aimed at inhibitors), 20 min", "method_in_brief": "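Normal human glucocerebrosidase (0.2 nM final) was assayed with resorufin β-D-glucopyranoside (30 uM final) in 50mM citric acid/KH2PO4, 10mM sodium taurocholate, 0.01% tween-20, pH 5.9. Compounds were titrated; fluorescence (Ex 548, Em 600) read after 20 min at RT.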"}
{"smiles": "CCn1c(=O)cc(OCC(=O)N2CCC3(CC2)OCCO3)c2ccccc21", "Potency": "inactive: > 76.9 µM"}
{"smiles": "CC1N(O)C2CCCCCC2N1O", "note": "(stereo not drawn)", "Potency": "inactive: > 76.9 µM"}
{"smiles": "NCC(CC(=O)O)c1ccc(Cl)cc1", "note": "(stereo not drawn)", "Potency": "inactive: > 76.9 µM"}
{"smiles": "Cc1cc(N2C(=O)C3CCCN3C2c2sccc2C)no1", "note": "(stereo not drawn)", "Potency": "inactive: > 76.9 µM"}
{"smiles": "Cc1nnc(SCc2nc3ccccc3c(=O)n2-c2ccccc2Cl)n1N", "Potency": "inactive: > 76.9 µM"}
{"smiles": "CC1(C)CC(=O)C=C(NCCN2CCN(C(=O)Cc3ccc(Cl)cc3)CC2)C1", "Potency": "inactive: > 76.9 µM"}
{"smiles": "CCC(=NC1CCN(Cc2ccccc2)CC1)c1c(O)[nH]c(=O)[nH]c1=O", "Potency": "inactive: > 76.9 µM"}
{"smiles": "COc1cc2c(cc1OC)C(C(=O)N1CCC3(CC1)OCCO3)C(c1ccccc1F)N(C)C2=O", "note": "(stereo not drawn)", "Potency": "inactive: > 76.9 µM"}
{"smiles": "c1cncc(C2CC(c3cccs3)n3ncnc3N2)c1", "note": "(stereo not drawn)", "Potency": "inactive: > 76.9 µM"}
{"smiles": "CC(C)(C)C(O)C(Oc1ccc(Cl)cc1)n1cncn1", "note": "(stereo not drawn)", "Potency": "inactive: > 76.9 µM"}
{"smiles": "O=c1[nH]c(=O)n(C2CCCCCC2)c(O)c1C=NCC1CCCO1", "note": "(stereo not drawn)", "Potency": "inactive: > 76.9 µM"}
{"smiles": "O=C(Cn1c(=O)c(C(F)(F)F)nc2ccccc21)N1CCC2(CC1)OCCO2", "Potency": "inactive: > 76.9 µM"}
{"smiles": "Cc1cccc(C)c1NC1=NCCCCS1", "Potency": "inactive: > 76.9 µM"}
{"smiles": "CCCC(C)C1(CC)C(=O)NC(=Nc2ccccc2OC)NC1=O", "note": "(stereo not drawn)", "Potency": "inactive: > 76.9 µM"}
{"smiles": "O=C(CCc1nc(-c2ccccc2F)no1)N1CCC2(CC1)OCCO2", "Potency": "inactive: > 76.9 µM"}
{"smiles": "O=C(c1cccs1)N1C2CCC1CC(O)(c1cccnc1)C2", "note": "(stereo not drawn)", "Potency": "inactive: > 76.9 µM"}
{"smiles": "O=C(COc1ccccc1)N1CCN(C2CCCC2)CC1", "Potency": "inactive: > 76.9 µM"}
{"smiles": "COc1ccc(N=C(C)c2c(O)n(C)c(=O)n(C)c2=O)c(OC)c1", "Potency": "inactive: > 76.9 µM"}
{"smiles": "CN1C(=O)N(C)C(=O)C2(Cc3c(nc4ccccn4c3=O)N3CCc4ccccc4C32)C1=O", "note": "(stereo not drawn)", "Potency": "inactive: > 76.9 µM"}
{"smiles": "CC(C)n1cc(C(=O)N(CC(=O)NC2CCCC2)Cc2ccccc2)cn1", "Potency": "inactive: > 76.9 µM"}
{"smiles": "Nc1ccccc1N=Cc1c(O)n(CCC2=CCCCC2)c(=O)[nH]c1=O", "Potency": "inactive: > 76.9 µM"}
{"smiles": "O=C(CN1CCCC1=O)N1CCOCC1", "Potency": "inactive: > 76.9 µM"}
{"smiles": "CCOC(=O)N1CCC(NC(=O)CCc2nc(C3=CCN(C)CC3)no2)CC1", "Potency": "inactive: > 76.9 µM"}
{"smiles": "CNP1(NC)=NC(C(F)(F)F)=NC(C(F)(F)F)=N1", "Potency": "inactive: > 76.9 µM"}
{"smiles": "Cc1ccc(S(=O)(=O)N2CCC(C(=O)N3CCC4(CC3)OCCO4)CC2)cc1", "Potency": "inactive: > 76.9 µM"}
{"smiles": "OC1(c2ccc(F)cc2)CC2CCC(C1)N2Cc1nnnn1C1CCCC1", "note": "(stereo not drawn)", "Potency": "inactive: > 76.9 µM"}
{"smiles": "CCCN1C2CCCC1CC(NC(C)=O)C2", "note": "(stereo not drawn)", "Potency": "inactive: > 76.9 µM"}
{"smiles": "CCS(=O)(=O)N1CCC(C(=O)N2CCC3(CC2)OCCO3)CC1", "Potency": "inactive: > 76.9 µM"}
{"smiles": "CCC(=NCC1CCCO1)c1c(O)n(-c2ccccc2)c(=O)[nH]c1=O", "note": "(stereo not drawn)", "Potency": "inactive: > 76.9 µM"}
{"smiles": "CC1CCC(C(=O)NC(C(=O)N2CCC3(CC2)OCCO3)C(C)C)CC1", "note": "(stereo not drawn)", "Potency": "inactive: > 76.9 µM"}
{"smiles": "COc1cc2[nH]c(=O)n(-c3ccccc3)c(=O)c2cc1OC", "Potency": "inactive: > 76.9 µM"}
{"smiles": "CC(=O)OC1(c2ccccc2)CCN(C)C2CCCCC21", "note": "(stereo not drawn)", "Potency": "inactive: > 76.9 µM"}
{"smiles": "COC(=O)C1C2c3ccccc3OC1(C)N=c1s/c(=C/c3cnn(C)c3C)c(=O)n12", "note": "(stereo not drawn)", "Potency": "inactive: > 76.9 µM"}
{"smiles": "COc1ccc2c(c1)CC1(CN2C)C(=O)NC(=O)N(c2ccc(C)cc2)C1=O", "note": "(stereo not drawn)", "Potency": "inactive: > 76.9 µM"}
{"smiles": "COc1ccc(OC)c(CN2CCN(C(=O)COc3cccc(C)c3)CC2)c1", "Potency": "inactive: > 76.9 µM"}
{"smiles": "COc1ccc(C2C(C(=O)N3CCC4(CC3)OCCO4)CC(=O)N2c2ccc(OC)cc2)cc1", "note": "(stereo not drawn)", "Potency": "inactive: > 76.9 µM"}
{"smiles": "CC(C)OC(=O)c1c(N)n(CC2CCCO2)c2nc3ccccc3nc12", "note": "(stereo not drawn)", "Potency": "inactive: > 76.9 µM"}
{"smiles": "CC1CCCC(C2(O)C(=O)Nc3ccccc32)C1=O", "note": "(stereo not drawn)", "Potency": "inactive: > 76.9 µM"}
{"smiles": "O=C(NCC(c1cccnc1)N1CCN(c2ccccc2)CC1)Oc1ccccc1", "note": "(stereo not drawn)", "Potency": "inactive: > 76.9 µM"}
{"smiles": "CC1(C)CC2(CCO1)NCCN1C(=O)CSC12", "note": "(stereo not drawn)", "Potency": "inactive: > 76.9 µM"}
{"smiles": "CN=C(SCc1cc2c(cc1Cl)OCO2)c1c(O)n(C)c(=O)n(C)c1=O", "Potency": "inactive: > 76.9 µM"}
{"smiles": "Cc1ccc(OCC(=O)N2CCN(C)CC2)c(Br)c1", "Potency": "inactive: > 76.9 µM"}
{"smiles": "CN(C)c1ccc(NC(=O)CN2C(=O)CN=C(c3ccccc3)c3ccccc32)cc1", "Potency": "inactive: > 76.9 µM"}
{"smiles": "CCCSc1nc(O)c(CC)c(=O)n1C(C)CC", "note": "(stereo not drawn)", "Potency": "inactive: > 76.9 µM"}
{"smiles": "COc1ccc(C2=NCC(=O)N(CC(=O)NCc3ccco3)c3sc4c(c32)CCCC4)cc1OC", "Potency": "inactive: > 76.9 µM"}
{"smiles": "COCCCn1c(N)c(C(=O)NCCC(C)C)c2nc3ccccc3nc21", "Potency": "inactive: > 76.9 µM"}
{"smiles": "CCC(=NCc1cccnc1)c1c(O)n(Cc2ccccc2)c(=O)[nH]c1=O", "Potency": "inactive: > 76.9 µM"}
{"smiles": "CCN(CC)C(=O)c1ccc(NC(=O)Cn2nc(C)c3ccccc3c2=O)cc1", "Potency": "inactive: > 76.9 µM"}
{"smiles": "CC1(C)CN=C(Nc2ccccc2C(F)(F)F)S1", "Potency": "inactive: > 76.9 µM"}
{"smiles": "Cc1sc2ncn(CC(=O)N3CCC4(CC3)OCCO4)c(=O)c2c1C", "Potency": "inactive: > 76.9 µM"}
{"smiles": "O=C(NC(Cc1ccccc1)C(=O)N1CCC2(CC1)OCCO2)C1CCCCC1", "note": "(stereo not drawn)", "Potency": "inactive: > 76.9 µM"}
{"smiles": "CN1C(=O)C(Cc2ccsc2)C(=O)N(C)C1=O", "Potency": "inactive: > 76.9 µM"}
{"smiles": "O=c1[nH]c(=O)n(CCc2ccc(F)cc2)c(O)c1C=NCCCn1ccnc1", "Potency": "inactive: > 76.9 µM"}
{"smiles": "CCOc1cc(C2NCc3ccccc3-n3cccc32)ccc1O", "note": "(stereo not drawn)", "Potency": "inactive: > 76.9 µM"}
{"smiles": "O=C(C1CCCO1)N1CCC2(CC1)OCCO2", "note": "(stereo not drawn)", "Potency": "inactive: > 76.9 µM"}
{"smiles": "Cc1nc2cc(F)ccc2n1C1CCN(Cc2nnnn2CCc2ccccc2)CC1", "Potency": "inactive: > 76.9 µM"}
{"smiles": "CC(=O)N(C1=NCCCS1)c1ccc(F)cc1", "Potency": "inactive: > 76.9 µM"}
{"smiles": "Cc1nn(Cc2ccccc2)c(C)c1C(=O)OCC(=O)Nc1ccccc1SCC#N", "Potency": "inactive: > 76.9 µM"}
